Experimental data from PubChem BioAssay AID1508624 (National Center for Advancing Translational Sciences (NCATS), 2021).
In all, about 48,000 compounds went through this assay and about 120 (0.25%) were called active. About 4% were inconclusive and are not listed. Calls follow the shape of the dose curve; as a rule, active = well fitted activation curve with a large enough effect; inconclusive = small, poorly fitted or top-dose-only effect, or another doubt; inactive = no such curve, though single readings can be large or run the other way. This is one part of the list.

Experiment: Primary qHTS for Identification of Small Molecule Activators of Huntingtin-Antisense Promoter Activity; also: nearly all actives have a fitted effect of over 55% in size
Details: HEK293 HTT-AS promoter firefly luciferase reporter (activity 0% = vehicle and -100% = no light), 24 h; series mostly up to 57.5 µM; activity change, positive = activation: at the top concentration
Procedure, shortened: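 HEK293 luciferase promoter-reporter cells (2,500/well) plated 24 h, then compounds added at up to 57.5 uM final for 24 h at 37 °C. Firefly luminescence by Dual-Glo, normalized to vehicle (0%) and zero RLU (-100%).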

Activity change, positive = activation, inactive:
CCOC(=O)c1cccc(NC(=O)CCS(=O)(=O)c2ccc3c(c2)CCN3C(=O)CC)c1 -6.93%
COc1cccc2cc(-c3nc(-c4ccc(Cl)cc4)cs3)c(=O)oc12 8.09%
CC(=O)c1cccc(NC(=O)c2ccc3nc(Cc4ccccc4)oc3c2)c1 -3.76%
CCn1c(=O)c2sccc2n2c(CCCC(=O)N3CCN(c4ccc(F)cc4)CC3)nnc12 -10.9%
CCCCOc1ccc(C(=O)N(Cc2ccccc2)C2CCS(=O)(=O)C2)cc1 (configuration not stated) 2.37%
CCCCOC(=O)c1c(C)oc2c1cc(NS(=O)(=O)c1cc(OC)ccc1OC)c1ccccc12 -24%
CCOc1ccc(-c2nnc(SCC(=O)Nc3cccc(C#N)c3)o2)cc1 -76.1%
COc1ccc(-c2c(C)c3ccc(O)c(CN4CCOCC4)c3oc2=O)cc1OC -16.4%
COc1cccc(NC(=O)Nc2ccc3c(c2)N(C)C(=O)c2ccccc2S3)c1 -24.5%
CC1CCN(C(=O)Cn2c(-c3cccs3)cc3cc(Cl)ccc32)CC1 -26.2%
CCCN1Cc2cccc(C(=O)Nc3cc(Cl)ccc3C)c2C1=O -7.02%
Cc1cc(C)c2c(c1)c(C)cc1nnc(SCC(=O)c3ccccc3)n12 1.54%
Cc1ccc(C)c(NC(=O)C(CC(C)C)N2Cc3ccccc3C2=O)c1 (configuration not stated) -11.1%
O=C(CSc1nccn1Cc1ccc(F)cc1)NCc1ccco1 9.14%
O=C(CN1C(=O)c2ccccc2Sc2ccc(C(=O)N3CCOCC3)cc21)Nc1ccc(Cl)cc1F -4.21%
Cc1cccc(NC(=O)c2sc3ncnc(N(C)C4CCCCC4)c3c2C)c1C -19.6%
Cc1ccc2onc(CC(=O)N3CCN(c4cccc(Cl)c4)CC3)c2c1 -27.5%
COc1ccc(NC(=O)Cn2c(=O)oc3cc(S(=O)(=O)N4CCCCCC4)ccc32)cc1OC -17.6%
C[C@]12CC[C@@H]3c4ccc(O)cc4CC[C@H]3[C@H]1CC[C@H]2O -24%
Cc1cc(F)ccc1NC(=O)Cn1cc(S(=O)(=O)NC(C)C)c(S(=O)(=O)NC(C)C)c1 -3.49%
CCCCSc1nc2sc3c(c2c(=O)n1-c1ccccc1C)CC(C)(C)OC3 -12%
CCOc1ccc(-n2cc(-c3ccccc3)c3c(Nc4cccc(F)c4)ncnc32)cc1 -2.5%
COc1ccc(NC(=O)CNC(=O)Cn2c(C)cc3ccccc3c2=O)c(OC)c1 -14.7%
O=C(c1ccccc1)N1CCN(CCc2ccccn2)CC1 -6.91%
COc1cccc(C(=O)Nc2c(C(=O)Nc3ccc(F)cc3)oc3ccccc23)c1OC 25.4%
CCOc1ccc(C(=O)Nc2nnc(SCc3cc(=O)n4ccccc4n3)s2)cc1 15.7%
CCN(Cc1ccccc1)S(=O)(=O)c1cc(Br)cc2c1N(C(=O)C1CC1)CC2 -31.8%
Cc1ccc(NC(=O)c2cnc(N3CCCC3)nc2C)cc1F 5.98%
COC(=O)c1ccc(NC(=O)C(=O)NCCc2csc(-c3ccc(F)cc3)n2)cc1 -10.6%
Cc1ccc(O)c(NC(=O)C2=CC(c3ccco3)=NS(=O)(=O)N2C)c1 -17.4%
O=C(CSc1ncccc1C(=O)Oc1ccccc1Cl)Nc1ccc(C(F)(F)F)cc1Cl -5.34%
COc1ccc(N2CCN(Cc3nc4c(c(=O)[nH]c(=O)n4C)n3Cc3ccccc3C)CC2)cc1 -0.764%
Cc1csc2nc(COC(=O)CNC(=O)c3ccccc3)cc(=O)n12 -4.92%
Cc1ccc(CN(C(=O)COc2ccccc2[N+](=O)[O-])c2ccccn2)o1 5.97%
O=c1oc2ccccc2cc1-c1cn2cc(Cc3cc(Cl)ccc3Cl)sc2n1 -13.7%
COc1ccc(NC(=O)C2CCCN(S(=O)(=O)c3ccc(F)cc3)C2)cc1 (configuration not stated) -19%
CCN(CC)S(=O)(=O)c1ccc2c(c1)N(CC(=O)Nc1cccc(C#N)c1)C(=O)CO2 -17.3%
CCc1nnc(NC(=O)CSc2nc3c([nH]c4ccccc43)c(=O)n2-c2ccc(Cl)cc2)s1 -23.1%
FC(F)(F)c1cc(-c2ccccc2)nc2cc(-c3ccccc3)nn12 16.4%
NC(=O)c1cccc(-c2cccc(OC(=O)NC3CCCCC3)c2)c1 8.42%
CC1CCN(C(=O)CSc2nc(-c3ccc(F)cc3)cc(C(F)(F)F)n2)CC1 -25.5%
CCOC(=O)c1sc(NC(=O)c2c(-c3ccccc3)c(-c3ccccc3)nn(C)c2=O)nc1C -19%
Cc1cccc(-n2c(=O)c3ccccc3n(Cc3ccc(F)cc3)c2=O)c1 -24.6%
CCc1ccc(Nc2nc3ccccc3nc2NS(=O)(=O)c2ccccc2)cc1 -47.8%
Cc1cc2c(cc1S(=O)(=O)Nc1cc(C(F)(F)F)cc(C(F)(F)F)c1)OCC(=O)N2 -25.8%
COc1ccc(NC(=O)C2=C(C)Nc3nc(SCc4ccc(Cl)cc4)nn3C2c2cccc(OC)c2OC)cc1 (configuration not stated) 2.4%
O=C(Cn1c(=O)nc(-c2ccccc2)c2ccccc21)Nc1ccc(Cl)cc1F -31.2%
CCCCOC(=O)c1ccc(NC(=O)c2sc3nc(C)cc(C)c3c2N)cc1 -54%
COc1ccc(N(C)C(=O)Cn2cc(S(=O)(=O)N3CCN(c4ccccc4F)CC3)c3ccccc3c2=O)c(OC)c1 -19.1%
Cc1[nH]c(=O)c(C#N)cc1-c1ccc2nccn2c1
COc1ccc(NC2=C(c3ccc(C(F)(F)F)cc3)C(=O)c3ccccc32)cc1 23.3%
COc1cccc(NC(=O)CN2C(=O)c3ccccc3Sc3ncccc32)c1 -7.72%
Cc1ccc(-n2nc(C)c3c(C(F)(F)F)cc(-c4cccnc4)nc32)cc1Cl -7.35%
COc1ccccc1C(=O)Nc1c(C(=O)NC(C)(C)C)oc2ccccc12 -13.3%
CCOC(=O)c1ccc(NC(=O)c2cn3c4c(ccc(Cl)c4c2=O)OC(C)C3)cc1 (configuration not stated) -6.57%
COc1ccc(S(=O)(=O)N2CCN(c3ccccc3OC)CC2)cc1 2.83%
COc1cc(OC)c(N(C)C(=O)Nc2cn(CC(C)C)c(=O)c3ccccc23)cc1Cl -21.1%
CCCc1nn2c(=O)cc(COC(=O)CNC(=O)COc3ccc(C)cc3)nc2s1 -1.57%
Cc1ccc(-c2nc(C)c(CCNC(=O)c3ccccc3Br)s2)cc1 21.2%
CCCCCCCCOc1ccc(C(=O)c2ccccc2)c(O)c1 0.0262%
CNC(=O)CN1C(=O)COc2ccc(S(=O)(=O)N3CCC(C)CC3)cc21 -22.8%
COCCNC(=O)c1ccccc1NC(=O)c1nsc2ccccc12 11.7%
